This is an account of results in publication PMC10726135.

The list shows a part of the results. At the low end of the ranking the order means little. The protein was read in a cell extract, so binding may be indirect.

The test addresses T1, HNF4alpha8 (COS-7 nuclear extract) (UniProt P41235-5).
T1 sequence: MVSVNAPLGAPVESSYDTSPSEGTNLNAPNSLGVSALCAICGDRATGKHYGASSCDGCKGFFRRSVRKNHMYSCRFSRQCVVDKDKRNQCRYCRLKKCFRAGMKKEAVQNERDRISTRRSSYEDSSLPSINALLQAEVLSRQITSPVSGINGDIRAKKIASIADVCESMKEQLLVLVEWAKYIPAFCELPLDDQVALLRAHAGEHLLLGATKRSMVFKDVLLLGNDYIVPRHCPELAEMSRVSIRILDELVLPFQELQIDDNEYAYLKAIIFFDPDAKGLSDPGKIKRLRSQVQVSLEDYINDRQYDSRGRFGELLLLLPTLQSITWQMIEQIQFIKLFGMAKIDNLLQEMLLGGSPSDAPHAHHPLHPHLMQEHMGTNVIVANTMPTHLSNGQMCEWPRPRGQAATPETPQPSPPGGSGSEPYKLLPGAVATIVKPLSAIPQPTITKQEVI
In words: protein-binding microarray. The settings on record: COS-7 nuclear extract on double-stranded Agilent 4x180k PBM; binding buffer, salt, pH and temperature not given; high values mean tight binding; double strand, one strand shown; sequences stand for … in …GCCTAGGGAGATTAGAGTATCGGTCGA
As for TCTCACTCACCCTAAGCCCTGCTCAGGGAA, the binding signal (log2 normalized intensity) was -1.15. The figure for ACAGGGATTACGATCCTGCCCTTCTGACCT is 5.92. As to GTGGGTTTAAGTAAGCCCCCTTCCCCCCTG, the binding signal (log2 normalized intensity) stood at 5.17.

With CATTCTCAGCTGCCACTGGAAGCTCTTCTG, the binding signal (log2 normalized intensity) was -1.4.

Consider TGTTTGCAAGTCGAGCAAGGTTCAGCACAT, for which the binding signal (log2 normalized intensity) was 0.976. Regarding GAATTCCATCCCAGGTCCACAGTGCACATT, the binding signal (log2 normalized intensity) came out at 2.26.

Turning to CAATCAGCCTTAGGTATGCCCCATGGTAAG, the binding signal (log2 normalized intensity) came to 1.49. Turning to AAAACCATTGCAAATTGGATGTTGAACCTC, the binding signal (log2 normalized intensity) was 4.51. For GGCTTGCAAGACTGCATTCCCTAGATGTCG, the binding signal (log2 normalized intensity) was -1.11.

With TACCTATGCCTTGTCTAGTTAAGTGTTCAG, the binding signal (log2 normalized intensity) turned out to be 1.93. On to ACAACCTTCTGAGATGGAGCATGATGAAAT, for which the binding signal (log2 normalized intensity) is -0.174.

Consider TTTAAGAGCTCTGTGTCAAAAATCAGGGAC, for which the binding signal (log2 normalized intensity) was -0.619. Turning to CTTTCAAACAAAAGCTGCTTCTGTAAAACT, the binding signal (log2 normalized intensity) is -1.27. On to AGAGATAAGGTCTTCTACAGTCCAAAGGGC, for which the binding signal (log2 normalized intensity) was determined as 6.2. Turning to ACTCAAAGAAAAGTTATGTTGGGCAACTAC, the binding signal (log2 normalized intensity) was -0.931. The figure for CAGCCACTTTTAAAAGGTAACATCAAAGCC is -1.12. Consider GCAAGGATGGGGGCAAAGGTTGACACCTAG, for which the binding signal (log2 normalized intensity) stood at 4.83.

Regarding GGGGTTAACGTCCAAAGGTAATGGTCTCTC, the binding signal (log2 normalized intensity) is 2.47. Take AGGGTCAGTTTGAAATTAGGCAATATGAGT: the binding signal (log2 normalized intensity) turned out to be 0.852. TACCTCTGATCACTACAAGCTTTGAAGGCA: the binding signal (log2 normalized intensity) was -1.34.

In the case of AGCGGAAAGAAAGGCCTTTCATACGTTTAA, the binding signal (log2 normalized intensity) was -1.16. With GAATCAAAGGTCAGGAATCGCATTGCAAAA the figure was 2.02; with CTCTTTTCTTTGTACCGTATTTCAGACCAC, 1.6; with ACTGGTGGTTTCACAATTAAGCCAAACTTG, -1.47. Turning to TTTACTGAGACTTAACAGTCACTCATGAGC, the binding signal (log2 normalized intensity) is -0.758. Turning to GTCAGATGGCCAAAGTCAACATTGATGGGG, the binding signal (log2 normalized intensity) stood at 0.929.

Consider GAGTGACCTGGTATTGCAAGTATTTCACCC, for which the binding signal (log2 normalized intensity) stood at 1.59.

Consider TCAGGAGTGATGCCAGAAGATTAGTGATGG, for which the binding signal (log2 normalized intensity) was -0.853.

Turning to CTCCAGATCAAAGGTCAAACAGTGCACTGA, the binding signal (log2 normalized intensity) is 5.96. With TGCAAGACCTCAGCCCTCAGGGGCCTTCAG the figure was -1.08. With CACTGTGCTCTGAAAAGTGAACTGTCTGCT, the binding signal (log2 normalized intensity) was 0.223. For the sequence TCTGAATAGAACTCAGGAAAGATCAGCTGA, the binding signal (log2 normalized intensity) is -1.12. In the case of AGAGTTCCTGACAATTGGCCAAAGTTCAGT, the binding signal (log2 normalized intensity) is 4.64. For CAGCAGATAAGGGCAGAGAGGCTGCCATCC, the binding signal (log2 normalized intensity) is -1.41. Turning to GCCTGTTCACATTCCAGTGTTTCAAAGGAG, the binding signal (log2 normalized intensity) is -0.17. On to ACTTTGAGGTGTTCTCTGGGGTTAGCCAAA, for which the binding signal (log2 normalized intensity) was 1.38. For the sequence TCCAGTGGACATTGGCCCTTTGACCTTTAA, the binding signal (log2 normalized intensity) was determined as 8.05.

TCTTATCAGCCATCTCCCCAGGGAGGCCTG: the binding signal (log2 normalized intensity) is -1. Regarding GCCCCCAGAGGTTCTAGCCCTGGTGAGTCA, the binding signal (log2 normalized intensity) was 2.04. Take CTTTAGGACTTTGAACCTTGGGTCTGTAAT: the binding signal (log2 normalized intensity) was found to be 6.82. The figure for AAATTCCAACAGTTGAGAATTCCAGAGATG is -0.705; for TATAGTCACTATACAACTAGGCTACATGAT it is -1.28. CTGCAGGGTAGGCAGACAGGTTGGAGACGC: the binding signal (log2 normalized intensity) was -1.22.

For CCTTGCATCAGAATCTGGACAGTGTAAGAT, the binding signal (log2 normalized intensity) turned out to be 0.241. With TCATCTGGGCTTTAGGTTTGGTGTTTAATT the figure was 1.71; with TGCGTGTACTAAGGTCTTAAGTGTCATTAG, 1.59. For AATCTTGATAGTAGAGCTTATCAAGGCAAC, the binding signal (log2 normalized intensity) is -1.26. With TTTTTTTTTTTTTTTGAGATGGAATCTTGC the figure was 1.36; with GACTTTTTGTAGTTTCAGCTTCTTCCTTGA, -0.249; with CTTTTGGCTCCCTGGGGTTAAAATGTTTAC, 1.95. GGCGGACAGCGCCGCCACCCGGTTGGCGCC: the binding signal (log2 normalized intensity) is -1.1.

For TTTCAAGAACAAACAAATTTAGCAAGACTG, the binding signal (log2 normalized intensity) was -1.36. GGAGGAAGCAGCGATGGAAGGGATGGGGTG: the binding signal (log2 normalized intensity) was -1.33. With GGGTAATAAATAAAGCCCTGGGGTAATAAA the figure was -0.448. Regarding CTGGTTGGAATTCCAGTGTTCACATCTGAT, the binding signal (log2 normalized intensity) is 1.09.

On to ACATTAAGACCACCTCTATGCACACGTTCA, for which the binding signal (log2 normalized intensity) is -1.1.

On to CTCTCTGGACTTCGGACATTCCAGGGAACA, for which the binding signal (log2 normalized intensity) came out at 4.52. As for GAACCAGAGAAGATTCCAGAGGGAGGGAGG, the binding signal (log2 normalized intensity) is -1.24.

Turning to GACTACCAGCCAGTAGGAGTTGGAACGGGG, the binding signal (log2 normalized intensity) was -1.03. Turning to ACACAGACTCCAAAGAATGGAAGGCAGTGT, the binding signal (log2 normalized intensity) is -1.08. The figure for CCCCATATCCAGTCAATCCCGTGGACTTTG is 6.13; for GGGTCAGTTTATCGAAAATCCCCCACCATT it is 4.11.

With CCTGCTGCACAACGACCCTTGCTCTGTTTT, the binding signal (log2 normalized intensity) amounted to 3.75.

As to ACCGTAAAGCCACCCCTTTCTCCTCTCTTT, the binding signal (log2 normalized intensity) amounted to 1.35. With GCCATTTCGGCACCTTCTACACAGCACCCC, the binding signal (log2 normalized intensity) was 2.82.

For ATTAGCTTCCCGGCTGTCACAGCCTGGTTC, the binding signal (log2 normalized intensity) is -1.3. As to CAGCACCACCTGCTGGTCAGGAGACTGCTC, the binding signal (log2 normalized intensity) was -1.37. Turning to CCTGGGAGGCAGGACCTTGGGAAAGGAGAA, the binding signal (log2 normalized intensity) was -1.31. In the case of TGAACTGATTAGAACATTAAGTCCAAATGC, the binding signal (log2 normalized intensity) stood at 1.55. With AGTAAACAGGGCTGGGATAACCGAGGCTGA, the binding signal (log2 normalized intensity) was -1.33. CATGCTGATGGCAAACACCTGGCCAGCGAC: the binding signal (log2 normalized intensity) is -1.07. GGAGATAGCCTCTGGGCTGGCTTTAGCTCA: the binding signal (log2 normalized intensity) was -1.28. TTCATCCCCACCCCCACTGCCTGACCCCAA: the binding signal (log2 normalized intensity) amounted to 7.49.
